One assay deals with T1, rat HER-3 (Rattus norvegicus, UniProt Q62799).
T1 construct: The cDNAs expressing the ECD of human and rat HER-3 were cloned into mammalian expression vectors as V5-His fusion proteins; V5-His; made in house; host or cells: mammalian expression vector; HEK 293T is named only for the chimeras
The experiment in a line: ELISA cross-reactivity with rat HER-3. Format: binding. An excerpt:
The extra-cellular domain (ECD) of Human HER-3 cDNA was amplified from RAT1-HER-3 cells. The rat HER-3 cDNAs was amplified by RT-PCR from rat liver RNA and confirmed by sequencing. The cDNAs expressing the ECD of human and rat HER-3 were cloned into mammalian expression vectors as V5-His fusion proteins. Domains from the human HER-3 ECD were swapped into the scaffold provided by the rat HER-3 ECD by using the Mfe1, BstX1 and DraIII internal restriction sites. By this means, various chimeric rat/human HER-3 ECD HIS fusion proteins (amino acids 1-160, 161-358, 359-575, 1-358, 359-604) were constructed and expressed via transient transfection of HEK 293T cells. Expression of the constructs was confirmed using a rat polyclonal antibody against human HER-3. The human monoclonal antibodies were tested in ELISA for binding to the secreted chimeric ECDs.
A general note: In an ELISA, binding on a coated surface is turned into a signal by an enzyme label.

The target in assay [1] is T2, reduced, denatured HER-3-His tagged purified ECD protein (Homo sapiens, UniProt P21860).
T2 construct: The extracellular domain of HER-3 (ECD) cDNA was cloned by polymerase chain reaction (PCR); His (C); made in house; host or cells: HEK293
The experiment in a line: Dot blot analysis of reduced, denatured HER-3 ECD. It is filed as binding.

T1 sequence (Q62799 20-643 limits assumed): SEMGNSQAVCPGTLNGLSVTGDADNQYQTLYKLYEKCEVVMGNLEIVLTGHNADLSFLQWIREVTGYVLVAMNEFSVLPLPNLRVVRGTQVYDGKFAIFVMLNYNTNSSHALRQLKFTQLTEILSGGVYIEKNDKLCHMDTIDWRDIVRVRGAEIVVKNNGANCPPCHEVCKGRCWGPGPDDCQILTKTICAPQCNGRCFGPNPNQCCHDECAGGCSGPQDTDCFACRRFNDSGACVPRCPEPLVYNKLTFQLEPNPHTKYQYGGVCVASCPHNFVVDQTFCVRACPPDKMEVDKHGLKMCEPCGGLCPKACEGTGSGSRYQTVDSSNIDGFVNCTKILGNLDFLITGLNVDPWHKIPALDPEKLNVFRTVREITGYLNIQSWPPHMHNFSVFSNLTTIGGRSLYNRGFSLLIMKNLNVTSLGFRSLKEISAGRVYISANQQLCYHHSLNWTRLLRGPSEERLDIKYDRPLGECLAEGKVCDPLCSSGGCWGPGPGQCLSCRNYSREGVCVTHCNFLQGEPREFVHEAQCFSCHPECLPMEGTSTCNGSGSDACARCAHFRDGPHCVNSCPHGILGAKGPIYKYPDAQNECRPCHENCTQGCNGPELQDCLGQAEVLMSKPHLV

B1: U1-49: human IgG1 anti-HER-3 antibody, SEQ ID NO: 42/44 (antibody, V domains shown)
VH: [in this place about 100 residues]GGRYSSSWSYYYYGMDVWGQGTTVTVS
VL: DILMTQTPLSLSVTPGQPASISCKSSQSLLLSDGGTYLYWYLQKPGQPPQLLIYEVSNRFSGVPDRFSGSGSGTDFTLKISRVEAEDVGVYYCMQSMQLPITFGQGTRLEIK
For the molecule B1, in the assay with rat HER-3, the “Rat XR (cross-reactive)” value is “No”. Also, in assay [1], the “binding in dot blot analysis” value is on record as “absence of binding”.

These data come from patent US9988462B2, “Material and methods for treating or preventing HER-3 associated diseases” (Daiichi Sankyo Europe GmbH, priority 2005, dated 2018).
